# Measurements reported in the supplement of paper PMC8728848.
# Some of the results follow.
# B1: ArathEULS3 (Arabidopsis thaliana), Q945P1 (protein)
# chain: MEHHHQHHRHHQRDDGEDDRQSFGVPPPHVDAPPQPHGLYQSQPHFDPYAPTPQAPAPYRSETQFEPHAPPPYRSEPYFETPAPPPSFGHVSHVGHQSPNESYPPEHHRYGGYQQPSNSLLESHGDHSGVTHVAHHSSNQPQSSSGVYHKPDENRLPDNLAGLAGRATVKVYSKAEPNYNLTIRDGKVILAPADPSDEAQHWYKDEKYSTKVKDADGHPCFALVNKATGEAMKHSVGATHPVHLIRYVPDKLDESVLWTESKDFGDGYRTIRMVNNTRLNVDAYHGDSKSGGVRDGTTIVLWDWNKGDNQLWKIFPFILEQKLISEEDLNSAVDHHHHHH
# Experiments:
# Experiment in all cases: glycan array binding signal (z-score within array); higher = stronger binding
# Settings in all cases: glycan notation: IUPAC condensed, linker removed
# Fuc(a1-2)Gal = biological target: Fuc(a1-2)Gal
# Method in brief: (§1)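 Negative Z-scores can be read as non-binding. The Z-score is calculated within each array and then averaged across arrays of one protein sequence at different concentrations or buffers and across linkers. Arrays, 3228 in all, were curated from the Consortium for Functional Glycomics database and kept only where the protein sequence was available.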
# Fuc(a1-2)Gal(b1-3)GalNAc = biological target: Fuc(a1-2)Gal(b1-3)GalNAc
# Method in brief: as §1
# [1] = biological target: Fuc(a1-2)Gal(b1-3)GalNAc(a1-3)[Fuc(a1-2)]Gal(b1-4)Glc
# Method in brief: as §1
# [2] = biological target: Fuc(a1-2)Gal(b1-3)GalNAc(a1-3)[Fuc(a1-2)]Gal(b1-4)GlcNAc
# Method in brief: as §1
# [3] = biological target: Fuc(a1-2)Gal(b1-3)GalNAc(b1-3)Gal
# Method in brief: as §1
# [4] = biological target: Fuc(a1-2)Gal(b1-3)GalNAc(b1-3)Gal(a1-4)Gal(b1-4)Glc
# Method in brief: as §1
# [5] = biological target: Fuc(a1-2)Gal(b1-3)GalNAc(b1-4)[Neu5Ac(a2-3)]Gal(b1-4)Glc
# Method in brief: as §1
# Fuc(a1-2)Gal(b1-3)GlcNAc = biological target: Fuc(a1-2)Gal(b1-3)GlcNAc
# Method in brief: as §1
# [6] = biological target: Fuc(a1-2)Gal(b1-3)GlcNAc(b1-2)Man(a1-3)[Fuc(a1-2)Gal(b1-3)GlcNAc(b1-2)Man(a1-6)]Man(b1-4)GlcNAc(b1-4)GlcNAc
# Method in brief: as §1
# [7] = biological target: Fuc(a1-2)Gal(b1-3)GlcNAc(b1-2)Man(a1-3)[Fuc(a1-2)Gal(b1-3)GlcNAc(b1-2)Man(a1-6)]Man(b1-4)GlcNAc(b1-4)[Fuc(a1-6)]GlcNAc
# Method in brief: as §1
# [8] = biological target: Fuc(a1-2)Gal(b1-3)GlcNAc(b1-3)Gal(b1-4)Glc
# Method in brief: as §1
# [9] = biological target: Fuc(a1-2)Gal(b1-3)GlcNAc(b1-3)GalNAc
# Method in brief: as §1
# [10] = biological target: Fuc(a1-2)Gal(b1-3)GlcNAc(b1-3)[Fuc(a1-2)Gal(b1-3)GlcNAc(b1-6)]GalNAc
# Method in brief: as §1
# [11] = biological target: Fuc(a1-2)Gal(b1-3)GlcNAc(b1-3)[Fuc(a1-3)[Gal(b1-4)]GlcNAc(b1-6)]Gal(b1-4)Glc
# Method in brief: as §1
# [12] = biological target: Fuc(a1-2)Gal(b1-3)GlcNAc(b1-3)[Gal(b1-4)GlcNAc(b1-6)]Gal(b1-4)Glc
# Method in brief: as §1
# [13] = biological target: Fuc(a1-2)Gal(b1-3)GlcNAc(b1-3)[Neu5Ac(a2-6)Gal(b1-4)GlcNAc(b1-6)]Gal(b1-4)Glc
# Method in brief: as §1
# [14] = biological target: Fuc(a1-2)Gal(b1-3)GlcNAc6S
# Method in brief: as §1
# [15] = biological target: Fuc(a1-2)Gal(b1-3)[Fuc(a1-4)]GlcNAc
# Method in brief: as §1
# [16] = biological target: Fuc(a1-2)Gal(b1-3)[Fuc(a1-4)]GlcNAc(b1-2)Man(a1-3)[Fuc(a1-2)Gal(b1-3)[Fuc(a1-4)]GlcNAc(b1-2)Man(a1-6)]Man(b1-4)GlcNAc(b1-4)GlcNAc
# Method in brief: as §1
# [17] = biological target: Fuc(a1-2)Gal(b1-3)[Fuc(a1-4)]GlcNAc(b1-2)Man(a1-6)[Fuc(a1-2)Gal(b1-3)[Fuc(a1-4)]GlcNAc(b1-2)Man(a1-3)]Man(b1-4)GlcNAc(b1-4)[Fuc(a1-6)]GlcNAc
# Method in brief: as §1
# [18] = biological target: Fuc(a1-2)Gal(b1-3)[Fuc(a1-4)]GlcNAc(b1-3)[Fuc(a1-3)[Gal(b1-4)]GlcNAc(b1-6)]Gal(b1-4)Glc
# Method in brief: as §1
# [19] = biological target: Fuc(a1-2)Gal(b1-3)[Fuc(a1-4)]GlcNAc(b1-3)[Gal(b1-4)GlcNAc(b1-6)]Gal(b1-4)Glc
# Method in brief: as §1
# Fuc(a1-2)Gal(b1-4)Glc = biological target: Fuc(a1-2)Gal(b1-4)Glc
# Method in brief: as §1
# Fuc(a1-2)Gal(b1-4)Glc6S = biological target: Fuc(a1-2)Gal(b1-4)Glc6S
# Method in brief: as §1
# Fuc(a1-2)Gal(b1-4)GlcNAc = biological target: Fuc(a1-2)Gal(b1-4)GlcNAc
# Method in brief: as §1
# [20] = biological target: Fuc(a1-2)Gal(b1-4)GlcNAc(b1-2)Man
# Method in brief: as §1
# [21] = biological target: Fuc(a1-2)Gal(b1-4)GlcNAc(b1-2)Man(a1-3)[Fuc(a1-2)Gal(b1-4)GlcNAc(b1-2)Man(a1-6)]Man(b1-4)GlcNAc(b1-4)GlcNAc
# Method in brief: as §1
# [22] = biological target: Fuc(a1-2)Gal(b1-4)GlcNAc(b1-2)Man(a1-3)[Fuc(a1-2)Gal(b1-4)GlcNAc(b1-2)Man(a1-6)]Man(b1-4)GlcNAc(b1-4)[Fuc(a1-6)]GlcNAc
# Method in brief: as §1
# [23] = biological target: Fuc(a1-2)Gal(b1-4)GlcNAc(b1-2)[Fuc(a1-2)Gal(b1-4)GlcNAc(b1-4)]Man(a1-3)[Fuc(a1-2)Gal(b1-4)GlcNAc(b1-2)Man(a1-6)]Man(b1-4)GlcNAc(b1-4)GlcNAc
# Method in brief: as §1
# [24] = biological target: Fuc(a1-2)Gal(b1-4)GlcNAc(b1-3)Gal(b1-4)GlcNAc
# Method in brief: as §1
# [25] = biological target: Fuc(a1-2)Gal(b1-4)GlcNAc(b1-3)Gal(b1-4)GlcNAc(b1-3)Gal(b1-4)GlcNAc
# Method in brief: as §1
# [26] = biological target: Fuc(a1-2)Gal(b1-4)GlcNAc(b1-3)GalNAc
# Method in brief: as §1
# [27] = biological target: Fuc(a1-2)Gal(b1-4)GlcNAc(b1-3)[Fuc(a1-2)Gal(b1-4)GlcNAc(b1-6)]GalNAc
# Method in brief: as §1
# [28] = biological target: Fuc(a1-2)Gal(b1-4)GlcNAc(b1-6)GalNAc
# Method in brief: as §1
# [29] = biological target: Fuc(a1-2)Gal(b1-4)GlcNAc6S
# Method in brief: as §1
# [30] = biological target: Fuc(a1-2)Gal(b1-4)[Fuc(a1-3)]GlcNAc
# Method in brief: as §1
# [31] = biological target: Fuc(a1-2)Gal(b1-4)[Fuc(a1-3)]GlcNAc(b1-2)Man(a1-3)[Fuc(a1-2)Gal(b1-4)[Fuc(a1-3)]GlcNAc(b1-2)Man(a1-6)]Man(b1-4)GlcNAc(b1-4)GlcNAc
# Method in brief: as §1
# [32] = biological target: Fuc(a1-2)Gal(b1-4)[Fuc(a1-3)]GlcNAc(b1-2)Man(a1-6)[Fuc(a1-2)Gal(b1-4)[Fuc(a1-3)]GlcNAc(b1-2)Man(a1-3)]Man(b1-4)GlcNAc(b1-4)[Fuc(a1-6)]GlcNAc
# Method in brief: as §1
# [33] = biological target: Fuc(a1-2)Gal(b1-4)[Fuc(a1-3)]GlcNAc(b1-2)[Fuc(a1-2)Gal(b1-4)[Fuc(a1-3)]GlcNAc(b1-4)]Man(a1-3)[Fuc(a1-2)Gal(b1-4)[Fuc(a1-3)]GlcNAc(b1-2)Man(a1-6)]Man(b1-4)GlcNAc(b1-4)GlcNAc
# Method in brief: as §1
# [34] = biological target: Fuc(a1-2)Gal(b1-4)[Fuc(a1-3)]GlcNAc(b1-3)Gal(b1-4)[Fuc(a1-3)]GlcNAc
# Method in brief: as §1
# [35] = biological target: Fuc(a1-2)Gal(b1-4)[Fuc(a1-3)]GlcNAc(b1-3)Gal(b1-4)[Fuc(a1-3)]GlcNAc(b1-3)Gal(b1-4)[Fuc(a1-3)]GlcNAc
# Method in brief: as §1
# [36] = biological target: Fuc(a1-2)Gal(b1-4)[Fuc(a1-3)]GlcNAc(b1-3)GalNAc
# Method in brief: as §1
# [37] = biological target: Fuc(a1-2)Gal(b1-4)[Fuc(a1-3)]GlcNAc(b1-3)[Neu5Ac(a2-6)Gal(b1-4)GlcNAc(b1-6)]Gal(b1-4)Glc
# Method in brief: as §1
# [38] = biological target: Fuc(a1-2)Gal6S(b1-3)GlcNAc
# Method in brief: as §1
# [39] = biological target: Fuc(a1-2)Gal6S(b1-3)GlcNAc6S
# Method in brief: as §1
binder,measurement,setting,value
B1,glycan array binding signal (z-score),Fuc(a1-2)Gal,0.402
same,glycan array binding signal (z-score),Fuc(a1-2)Gal(b1-3)GalNAc,0.059
same,glycan array binding signal (z-score),[1],-0.275
same,glycan array binding signal (z-score),[2],-0.18
same,glycan array binding signal (z-score),[3],0.001
same,glycan array binding signal (z-score),[4],-0.313
same,glycan array binding signal (z-score),[5],-0.184
same,glycan array binding signal (z-score),Fuc(a1-2)Gal(b1-3)GlcNAc,-0.25
same,glycan array binding signal (z-score),[6],-0.068
same,glycan array binding signal (z-score),[7],0.265
same,glycan array binding signal (z-score),[8],0.024
same,glycan array binding signal (z-score),[9],-0.252
same,glycan array binding signal (z-score),[10],-0.058
same,glycan array binding signal (z-score),[11],0.182
same,glycan array binding signal (z-score),[12],-0.249
same,glycan array binding signal (z-score),[13],-0.159
same,glycan array binding signal (z-score),[14],-0.065
same,glycan array binding signal (z-score),[15],0.438
same,glycan array binding signal (z-score),[16],-0.053
same,glycan array binding signal (z-score),[17],-0.223
same,glycan array binding signal (z-score),[18],-0.06
same,glycan array binding signal (z-score),[19],1.47
same,glycan array binding signal (z-score),Fuc(a1-2)Gal(b1-4)Glc,-0.084
same,glycan array binding signal (z-score),Fuc(a1-2)Gal(b1-4)Glc6S,-0.487
same,glycan array binding signal (z-score),Fuc(a1-2)Gal(b1-4)GlcNAc,-0.135
same,glycan array binding signal (z-score),[20],-0.386
same,glycan array binding signal (z-score),[21],-0.069
same,glycan array binding signal (z-score),[22],0.565
same,glycan array binding signal (z-score),[23],0.36
same,glycan array binding signal (z-score),[24],-0.205
same,glycan array binding signal (z-score),[25],-0.257
same,glycan array binding signal (z-score),[26],-0.325
same,glycan array binding signal (z-score),[27],-0.164
same,glycan array binding signal (z-score),[28],-0.126
same,glycan array binding signal (z-score),[29],-0.196
same,glycan array binding signal (z-score),[30],0.658
same,glycan array binding signal (z-score),[31],1.64
same,glycan array binding signal (z-score),[32],1.72
same,glycan array binding signal (z-score),[33],-0.214
same,glycan array binding signal (z-score),[34],-0.224
same,glycan array binding signal (z-score),[35],-0.339
same,glycan array binding signal (z-score),[36],11.8
same,glycan array binding signal (z-score),[37],-0.099
same,glycan array binding signal (z-score),[38],-0.322
same,glycan array binding signal (z-score),[39],0.585
